# About 230 (0.21%) of roughly 110,000 compounds showed an effect of 50% or more. The list shows a part of the results.
# Biological target: DPAP1 (Plasmodium falciparum, UniProt Q8IIJ9)
# Assay: primary screen, percent inhibition; read by cleavage of a fluorogenic dipeptide substrate; higher = more effect of the substance
# Set-up: species or system P. falciparum D10 trophozoite lysates; single well
# 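Further: 30 min substrate incubation versus DMSO and 10 µM JCP410 controls.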
# DPAP1, sequence (Q8IIJ9 whole entry, looked up): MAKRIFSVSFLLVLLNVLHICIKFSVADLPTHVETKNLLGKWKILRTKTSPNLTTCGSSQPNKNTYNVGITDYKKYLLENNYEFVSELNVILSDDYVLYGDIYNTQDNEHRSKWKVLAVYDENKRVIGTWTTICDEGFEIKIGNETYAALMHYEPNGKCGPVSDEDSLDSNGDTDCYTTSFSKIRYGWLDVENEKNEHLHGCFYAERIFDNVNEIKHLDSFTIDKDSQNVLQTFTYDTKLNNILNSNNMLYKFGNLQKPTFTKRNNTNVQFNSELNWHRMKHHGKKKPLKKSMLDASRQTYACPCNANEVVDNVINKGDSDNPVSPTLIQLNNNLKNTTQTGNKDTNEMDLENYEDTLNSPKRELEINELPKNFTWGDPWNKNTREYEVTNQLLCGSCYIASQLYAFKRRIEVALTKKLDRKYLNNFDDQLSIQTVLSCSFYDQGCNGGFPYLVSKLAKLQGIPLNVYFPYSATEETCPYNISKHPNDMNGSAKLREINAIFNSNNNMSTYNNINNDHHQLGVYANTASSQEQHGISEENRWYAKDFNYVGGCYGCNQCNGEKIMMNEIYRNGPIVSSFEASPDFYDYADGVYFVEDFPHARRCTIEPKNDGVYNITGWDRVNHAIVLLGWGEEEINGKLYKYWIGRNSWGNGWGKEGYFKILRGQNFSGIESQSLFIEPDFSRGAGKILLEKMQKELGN
row,SMILES,% Inhibition @ 10 uM [%]
1,CC(C)N(CCCNC(=O)Cn1c2ccccc2c2cnnc(O)c21)Cc1ccccc1,3
2,COc1ccc(Br)cc1CNC(=O)Cn1c(=O)c2cccn2c2cccnc21,-1.24
3,Cc1ccc(-c2onc(C)c2C)cc1S(=O)(=O)Nc1cccnc1,-1.52
4,COC(=O)C1=C(C)N(Cc2ccccc2)C(=O)/C1=C\c1ccc(C(=O)O)cc1,-1.6
5,O=C(COc1ccc2ccccc2c1Br)Nc1nccs1,-0.759
6,CCOc1cccc(C(=O)Nc2c(C(=O)c3ccccc3)oc3ccccc23)c1,-2.91
7,Cc1nn(-c2ccccc2)c2c1C(c1cccc([N+](=O)[O-])c1)C(C#N)=C(N)O2 (stereo not drawn),-0.807
8,O=C1/C(=C/c2ccc3nccnc3c2)CCC1C1CCCC1 (stereo not drawn),66.2
9,COC(=O)c1ccc(-n2nnnc2SCc2c(C)ccc3ccccc23)cc1,3.25
10,COC(=O)C1=C(C)NC(=O)C1(NC(=O)c1ccncc1)C(F)(F)F (stereo not drawn),-0.403
11,CCC(C)NC(=O)C(=O)NCc1ccccc1 (stereo not drawn),-4.01
12,Cc1ccc(C(=O)NCc2ccc3c(c2)OCO3)cc1C,0.611
13,COc1ccccc1-c1nn2c(Cc3ccccc3)nnc2s1,3.38
14,Clc1ccc(-c2noc(-c3ccccn3)n2)cc1,-5.21
15,CC1(C)CC(Cc2ccccc2)(C(=O)O)CCO1 (stereo not drawn),-1.99
16,CCOc1ccc(-c2cc(C(=O)N3CCN(Cc4ccc(OC)c(OC)c4OC)CC3)[nH]n2)cc1,0.297
17,COCCCN1CC(=O)C(c2nc3cc(C)ccc3[nH]2)=C1N,-6.72
18,C=CCCCC(C=C)S(=O)(=O)c1ccc(C)cc1 (stereo not drawn),5.58
19,CC12CN3CC(C)(CN(C1)C3c1ccc(O)cc1)C2=O (stereo not drawn),-4.35
20,O=C(Nc1cccc([N+](=O)[O-])c1)c1ccccc1C(=O)Nc1cccc2ccccc12,-6.52
21,CCOC(=O)C1=C(CS(=O)(=O)c2ccccc2)NC(=O)NC1c1ccccc1OCC (stereo not drawn),2.85
22,COc1cc(C2C(C#N)=C(N)Oc3[nH]nc(C(C)C)c32)ccc1O (stereo not drawn),-2.77
23,O=C(NCCN1CCOCC1)c1cc2nc(-c3ccc(Cl)c(Cl)c3)cc(C(F)(F)F)n2n1,-1.57
24,CCOc1ccc(CNS(=O)(=O)c2cc(C(=O)OC)n(C)c2)cc1OC,-1.78
25,CN(Cc1ccccc1)C(=O)C1CCC(CNS(=O)(=O)c2cccc3cccnc23)CC1 (stereo not drawn),-4.21

row,SMILES,% Inhibition @ 10 uM [%]
1,CCCCNC(=O)CN(c1cccc(F)c1)S(C)(=O)=O,0.605
2,O=C1NC(c2cccc(F)c2)C(C(=O)c2ccccc2)C(O)(C(F)(F)F)N1 (stereo not drawn),0.24
3,CCOC(=O)C1=Cc2sc3c(c2CS1)CCCC3,9.04
4,CC1CCCCN1CCNC(=O)c1cc(S(=O)(=O)N2CCCC2)cn1C (stereo not drawn),-0.659
5,Cc1cc(-c2ccccc2)c2c(N)c(C(=O)NC3CCCCC3)sc2n1,-1.72
6,COc1ccc(-c2cc(C(=O)Nc3ccncc3)c3ccccc3n2)c(OC)c1,0.331
7,Cc1c(-c2nsc(NC(=O)c3cccs3)n2)nnn1-c1ccc(C(C)C)cc1,-1.74
8,CCCCn1nnc2sc3c(c2c1=O)CCC(C(C)(C)C)C3 (stereo not drawn),-0.946
9,Cn1c2c(c(=O)n(C)c1=O)CN(CC1CCN(Cc3ccccc3F)CC1)CN2,-2.88
10,CC(C)C[C@H](NC(=O)c1ccc(N2CCCC2=O)cc1)C(=O)NCC#N,-11
11,COCc1nnc(NC(=O)CSCc2ccccc2)s1,3.87
12,O=C(Cn1cnc(S(=O)(=O)N2CCCC2)c1)NCc1ccc(F)cc1,2.65
13,O=C(COc1ccccc1)Nc1nc(-c2ccc(S(=O)(=O)N3CCOCC3)cc2)cs1,12.5
14,COCCCNC(=O)CSc1nnc(-c2ccc(C)cc2)c(-c2ccc(C)cc2)n1,-0.615
15,CS(=O)(=O)C1=NN2C(=N)/C(=C\c3ccc(OCCOc4ccccc4)cc3)C(=O)N=C2S1,-3.39
16,Cc1ccc(NC(=O)/C(C#N)=C(\N)C(Cl)(Cl)Cl)nc1,2.8
17,CC(C)NC(=O)C(=O)Nc1ccc2c(c1)OCCO2,-0.833
18,COc1ccccc1S(=O)(=O)Cc1ccc(C(=O)NCc2ccccc2Cl)o1,-3.32
19,CNC(=O)c1cccnc1Nc1cccc(C(F)(F)F)c1,0.245
20,O=C1NC(=O)N(c2ccccc2)C(=O)/C1=C\Nc1ccccc1Cl,-6.62
21,CC1=CC(C)(C)N2C(=O)C(=O)c3c(C)c(C)cc1c32,2.36
22,COc1ccc(OCCSc2nc(C)cc(O)n2)cc1,-4.76
23,O=C(O)CNS(=O)(=O)c1ccc(C2CCCCC2)cc1,2.44
24,COC(=O)c1c(NC(=O)C2CCCO2)sc2c1CCC2 (stereo not drawn),1.4
25,Cc1ccc(CSc2nc3ccc(C(=O)N4CCN(c5ncccn5)CC4)cc3n2C)cc1,4.24

row,SMILES,% Inhibition @ 10 uM [%]
1,CCN(CCN(C)C)C1CCC(C)CC1 (stereo not drawn),3.44
2,O=C(CSC1CC(=O)N(c2ccc(F)cc2)C1=O)Nc1ccc2ccccc2c1 (stereo not drawn),-1.08
3,Cc1ccc(-c2cc(C(=O)N3CCCC(C)C3)n[nH]2)cc1C (stereo not drawn),2.79
4,CCCCSc1nc2ccc(NC(C)=O)cc2s1,0.815
5,c1ccc(CN2CCC(NCCCN3CCOCC3)CC2)cc1,3.19
6,CCC(C)C(NCc1cccc(C)c1)C(=O)O (stereo not drawn),-1.99
7,Cc1ccc(CNc2c3c(nc4nncn24)CCC3)cc1,-5.33
8,CN(c1cccc(NS(=O)(=O)c2cc(Cl)ccc2Cl)c1)S(C)(=O)=O,-4.14
9,Cc1ccccc1-c1noc(C2CCC(c3ccccc3)CC2)n1 (stereo not drawn),-2
10,Cc1c(Cl)cccc1-n1ncnc1-c1ccc(Cl)cc1,-3.6
11,CCOc1ccccc1/C=C(\C#N)c1nc(-c2ccc(Br)cc2)cs1,-7.99
12,CC(C)(C)NCC(O)COc1cccc2c3c(oc12)CCCC3 (stereo not drawn),-3.16
13,Cc1noc(C)c1S(=O)(=O)NC(c1ccccc1)c1ccccc1,-1.83
14,Cc1c(CNCCCc2ccccc2)c(C(=O)O)c(C)n1Cc1ccc(F)cc1,-3.67
15,COc1cccc(N(CC(=O)N(C)Cc2ccccc2)S(=O)(=O)c2ccc(C)cc2)c1,8.26
16,CCOC(=O)C1CCCN(Cc2ccc(Br)cc2)C1 (stereo not drawn),1.38
17,CCOc1ccc(CNC(=O)c2oc3ccc4c(c3c2C)C(=O)CC2(CCCC2)O4)cc1,-2.85
18,Cc1cc2oc(C(=O)Nc3nonc3C)c(C)c2cc1C,3.51
19,CN1CCN(C(=O)COCc2cc(-c3ccc4c(c3)OCO4)on2)CC1,1.86
20,COC(=O)c1ccc(NC(=O)C(c2ccccc2)c2ccccc2)cc1,-1.86
21,Cc1cccc(-n2ncc3c(NCCc4c[nH]c5ccccc45)ncnc32)c1,9.07
22,Cc1cc(NC(=O)c2ccc3c(c2)CC(c2ccccc2)OC3=O)no1 (stereo not drawn),-1.37
23,COC(=O)c1c[nH]n2c(NC3CCCCC3)c(-c3ccc(Cl)cc3)nc12,-1.99
24,CCN(C(=O)c1ccc2c(c1)OCO2)c1nc(-c2ccccc2)cs1,-5.98
25,CCOCCCNC(=O)CN(C)c1nn2c(=O)cc(C)nc2s1,1.38

row,SMILES,% Inhibition @ 10 uM [%]
1,COc1cc(C2NC(=O)NC(C)=C2C(=O)NCc2ccccc2)c(Cl)cc1O (stereo not drawn),-7.99
2,O=C(c1ccc([N+](=O)[O-])o1)N1CCc2ccccc21,-2.55
3,COc1ccc(OCc2cc(O)nc3ccccc23)cc1,2.72
4,COc1ccc(/N=C2/S/C(=C\c3ccc(OC)c(C)c3)C(=O)N2C)cc1,6.69
5,NC1CCCc2c1[nH]c1ccc([N+](=O)[O-])cc21 (stereo not drawn),-0.693
6,c1cncc(CNc2nc3ccccc3n3nnnc23)c1,1.15
7,CC(NC(=O)CSCc1cccs1)c1ccccc1 (stereo not drawn),1.72
8,CCOC(=O)c1ccc(C)c(CNC(=O)CSc2nnc(-c3ccc(F)cc3)n2C)c1,5.13
9,COc1cc2c(cc1OC)C(c1cccc(Cl)c1)N(Cc1cccs1)CC2 (stereo not drawn),-1.85
10,Cc1c(Cc2ccccc2)sc(NC(=O)c2ccc(F)cc2)c1C(N)=O,-6.92
11,CC1=NN(c2cccc(Br)c2)C(=O)/C1=C\c1cccc([N+](=O)[O-])c1,-8.22
12,O=C(/C=C\Nc1ccc(S(=O)(=O)Nc2ncccn2)cc1)c1cccs1,-1.06
13,CC(C)CCn1c(=O)c2ccccc2n2c(CCC(=O)NC(C)c3ccccc3)nnc12 (stereo not drawn),5.09
14,CC(=O)Nc1ccc(S(=O)(=O)Nc2nc3c(s2)CCCC3)cc1,-4.67
15,Cc1c(Cc2ccccc2)sc(NC(=O)COc2ccccc2Cl)c1C(N)=O,17
16,Cc1cccc(C)c1NC(=O)CN(c1ccccc1F)S(=O)(=O)c1ccccc1,-3.39
17,CCN(CC)S(=O)(=O)c1cnccc1N1CCN(c2cccc(Cl)c2)CC1,-2.74
18,CN(C)c1ccc(-c2[nH]c3c(=O)n(C)c(=O)n(C)c3c2O)cc1,0.345
19,O=C(CSc1ccccn1)NCC(=O)c1ccccc1,-4.48
20,COc1ccc2c(c1)CCc1sc(NC(=O)c3ccccc3Cl)nc1-2,-7.46
21,C=CCc1cc(/C=C2/NC(=O)N(Cc3ccccc3F)C2=O)cc(OCC)c1O,-18.8
22,O=C(O)c1ccc(-c2ccc(/C=C3\SC(=O)N(CC(=O)N4CCOCC4)C3=O)o2)cc1Cl,-3.04
23,O=S(=O)(c1ccccc1Br)N1CCNCC1,-0.671
24,Cc1ccc(C(=O)N/C(=C\c2cn(S(=O)(=O)N(C)C)c3ccccc23)C(=O)NCCCO)cc1,4.8

# Reference: paper PMC6919601, “Identification of Plasmodium dipeptidyl aminopeptidase allosteric inhibitors by high throughput screening” (PLoS ONE, 2019)
